PubChem BioAssay AID1963576 (National Center for Advancing Translational Sciences (NCATS), 2024)
In all, about 46,000 compounds went through this assay and about 60 (0.1%) were called active. About 3% were inconclusive and are not listed. The call rests on the fitted dose curve; in most records, active means well fitted inhibition curve with a large enough effect; inconclusive means small, poorly fitted or top-dose-only effect; inactive means no such curve, though single readings can be large or run the other way. The list shows a part of the results.

Assay: Primary qHTS assay for Inhibitors of ovarian cancer metastasis using an organotypic tumor microenvironment (TME) model. Further: nearly all actives have a fitted effect of over 65% in size.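 On activity change, negative = inhibition: plate controls were DMSO wells for no effect and tomatine positive control wells for full effect.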
Settings: SKOV3ip1-GFP adhesion/invasion on 3D omental model, fluorescence; series mostly up to 45.8 µM; activity change, negative = inhibition: at the top concentration
In short: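 qHTS, 4-pt dose (0.36-46 umol/L); SKOV3ip1-GFP, 1,200 cells/well, no FBS; primary omental fibroblast/mesothelial co-culture 48 h pre-grown; 2 h RT + 16 h 37 C; PBS wash, 4% PFA; GFP count 488/509 nm.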

outcome, inactive:
Cc1ccc(S(=O)(=O)c2cnc(SCC(=O)Nc3ccc4c(c3)OCCO4)[nH]c2=O)cc1C
CCOc1ccc(CCNc2ncnc3onc(-c4ccc(Cl)cc4)c23)cc1
CC(C)(C)OC(=O)N1CCC(c2nnc(SCc3ccccc3F)o2)CC1
CCn1nnc2cc(C(=O)Nc3ccc(C)cc3Br)ccc21
Cc1ccn2c(c1)nc(=O)c1cc(S(=O)(=O)N3CCCCC3)c(Cl)cc12
CCc1ccccc1NC(=O)CN(c1ccc(OC)cc1)S(=O)(=O)c1c(C)n[nH]c1C
COc1cccc(CNC(=O)CCCN2C(=O)CSc3c2c(C)nn3-c2ccccc2)c1OC
CCOC(=O)c1c(NC(=O)/C=C/c2ccc(OCC)c(OC)c2)sc2c1CCC2
CCN1C(=O)c2ccccc2S(=O)c2ccc(C(=O)N3CCN(c4ccccc4)CC3)cc21 (configuration not stated)
CCn1c(NCc2ccc(OC)c(OC)c2)nc2ccccc21
COc1ccccc1C(=O)OCc1cc(=O)n2nc(C3CCCCC3)sc2n1
Cc1cccc(NC(=O)CN2C(=O)c3ccccc3Sc3ncccc32)c1C

Activity change, negative = inhibition, inactive:
Cc1nn2c(=O)cc(COC(=O)c3ccc(NC(=O)COc4ccc(Cl)cc4)cc3)nc2s1 -1.89%
COc1ccc(OC)c(CNC(=O)c2cc3ccc4cccnc4c3[nH]2)c1 16.1%
O=c1c2oc3ccccc3c2n(Cc2ccccc2)c(=O)n1Cc1ccco1 0.249%
COc1ccc(C)cc1NC(=O)C(=O)NCCc1csc2nc(-c3ccccc3F)nn12 4.28%
O=C(Cn1nnc2sc(-c3ccccc3)cc2c1=O)Nc1cccc(C(F)(F)F)c1 1.27%
Cc1ccccc1Nc1c(-c2c[nH]c3ccccc23)nc2ccccn12 1.89%
CC1CCN(S(=O)(=O)c2ccc3nc(NCc4ccc(F)cc4)ccc3c2)CC1 -5.32%
Cc1c(NC(=O)c2cc(-c3ccc(Br)cc3)on2)c(=O)n(-c2ccccc2)n1C 4.68%
CCc1ccc(NC(=O)c2sc3nc(C)c(C(=O)Nc4ccc(C)cc4C)c(-c4ccco4)c3c2N)cc1 -0.643%
COc1ccc(Nc2sc(C(=O)c3ccccc3)c(N)c2C(=O)Nc2cc(C)ccc2C)c(OC)c1 -19.5%
Cc1oc(-c2ccccc2)nc1CNC(=O)NC1CCCCC1 5.08%
Cc1ccc(NC(=O)c2cc(S(=O)(=O)NCCC3=CCCCC3)ccc2F)cc1C -15.1%
Cc1cccc(-c2nc3scc(CCNS(=O)(=O)c4ccc(F)cc4C)n3n2)c1 -2.87%
Cc1ccc(S(=O)(=O)c2nnn3c2nc(N2CCC(C)CC2)c2cc(Cl)ccc23)cc1C -2.9%
Cc1cccc(CCNC(=O)C2CCN(c3ncnc4c3nc3n4CCCCC3)CC2)c1 2.15%
